Reference: PubChem BioAssay AID1346428 (National Center for Advancing Translational Sciences (NCATS), 2018)
In all, about 48,000 compounds went through this assay and about 1,200 (2.5%) were called active. Inconclusive results (about 2%) are left out.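 The calls were made as follows: active = activation of at least 60% and not above a set upper limit (about 1 call in 100 departs from these limits); inconclusive = activation of 40% to 60%, or above that upper limit; inactive = activation under 40%.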 The list shows a part of the results.

biological target: Probable G-protein coupled receptor 32 (Homo sapiens) (UniProt O75388); assay: qHTS for Agonists of Human Resolvin D1 Receptor DRV1; details: CHO-K1 GPR32 beta-arrestin PathHunter luminescence, 90 min; at 76.9 µM; active compounds read high; zero percent set by DMSO-only wells; also: 0% is about no effect
Chain of UniProt O75388 (O75388 whole entry, looked up, the tested form may be a part): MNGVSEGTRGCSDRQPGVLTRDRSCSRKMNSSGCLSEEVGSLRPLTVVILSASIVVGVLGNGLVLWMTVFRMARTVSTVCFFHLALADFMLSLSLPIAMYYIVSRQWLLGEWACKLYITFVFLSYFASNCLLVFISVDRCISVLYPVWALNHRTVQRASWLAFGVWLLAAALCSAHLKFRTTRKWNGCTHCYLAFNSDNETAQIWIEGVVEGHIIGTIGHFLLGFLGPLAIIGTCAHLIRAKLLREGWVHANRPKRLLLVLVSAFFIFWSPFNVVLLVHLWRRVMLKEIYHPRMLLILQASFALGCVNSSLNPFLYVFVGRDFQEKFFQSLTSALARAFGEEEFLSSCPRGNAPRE
How it was run: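 Agonism was scored as beta-arrestin recruitment to ProLink-fused GPR32 in stably transfected CHO-K1 cells, giving a chemiluminescent beta-Gal signal; compounds were incubated 90 min at 37 °C.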

activation, inactive:
CCn1cc2nc(SCC(=O)Nc3cccc(Cl)c3C)n(Cc3ccc(Cl)cc3)c(=O)c2n1 -18%
O=C(NCCc1ccc(Cl)cc1)c1ccc2c(c1)N(Cc1ccccc1)C(=O)CS2 -11.6%
Cc1ccc(NC(=O)CN2C(=O)c3ccccc3Sc3ncccc32)c(C)c1 7.84%
Cc1ccc(NC(=O)c2sc3nc[nH]c(=O)c3c2C)cc1C 7.48%
COc1ccccc1NC(=O)C1=C(C)Nc2nc(SCc3ccccc3)nn2C1c1cccs1 (stereo not drawn) -38.8%
CCn1c(SCC(=O)Nc2cc(Cl)ccc2OC)nc2c([nH]c3ccccc32)c1=O 11.7%
CC(=O)c1ccc(NC(=O)c2nn(C)c3c2COc2ccccc2-3)cc1 -5.39%
CCc1cc2c(-c3ccccc3)cc(=O)oc2c2c1OCN(Cc1ccc(C)cc1)C2 -37.6%
CCOC(=O)c1c(NC(=O)c2cc(-c3ccc(Br)cc3)on2)sc(C)c1C 5.98%
CC(Oc1ccccc1F)C(=O)N1CCC(c2nc3ccccc3o2)CC1 (stereo not drawn) 10.8%
CCOc1ccccc1NC(=O)N1CCC(N2CCN(Cc3ccccc3)C(=O)C2=O)CC1 -16.1%
O=c1c2ccccc2nc(-c2ccc(Cl)cc2)n1CCCCOc1ccc(F)cc1 -16.2%
COC(=O)c1ccc(NC(=O)CCOc2ccccc2)cc1 -5.4%
Cc1ccc(Cn2c(Cc3ccccc3)nc3ccccc32)cc1 -50.1%
CCOC(=O)c1ccccc1NC(=O)CCc1c(C)nc2c(c1C)c(=O)n(C)c(=O)n2C -4.1%
CCOc1ccc(CN2C(=O)c3ccccc3Sc3ccc(C(=O)NC4CCC(C)CC4)cc32)cc1 (stereo not drawn) 10%
CC(COc1ccccc1)NN (stereo not drawn) -35.5%
COC(=O)c1ccc(NC(=O)c2cc3cc4ccc(OC)c(Cl)c4nc3s2)cc1 -15.8%
COc1ccc(CNC(=O)CCS(=O)(=O)c2cc3c4c(c2)CCN4C(=O)CC3)cc1 7.23%
COc1ccc(-c2noc(CSc3nnc(-c4ccncc4)n3-c3ccc(OC)cc3)n2)cc1 -20.7%
Cc1cccc(NC(=O)Cn2c(=O)oc3cc(S(=O)(=O)N4CCCCCC4)ccc32)c1 37.9%
Cn1cc(C(=O)N2CCN(c3ccccc3)CC2)c(=O)c2cc(S(=O)(=O)N3CCCC3)ccc21 -10.4%
O=C(NC1CC(=O)N(c2ccc(F)cc2)C1)C(c1ccccc1)c1ccccc1 (stereo not drawn) -16.1%
CCOC(=O)c1cc(-c2ccccc2)n(-c2cccc(C(=O)Nc3cccc(C)c3)c2)c1C -18.9%
Cc1ccc2nc(COc3cccc(NC(=O)COc4ccccc4F)c3)cc(=O)n2c1 -0.816%
O=C(C1CC1)N1CCc2cc(Br)cc(S(=O)(=O)N3CCN(c4cccc(Cl)c4)CC3)c21 -5.06%
Cc1ccc(CSc2ccc3nnc(CCNS(=O)(=O)c4ccc(C)cc4)n3n2)cc1 -22.7%
O=C(Nc1ccc2nc(SCC(=O)N3CCCC3)sc2c1)c1ccc(Br)cc1 -2.74%
Cc1cccc(OCC(=O)OCc2cc(=O)n3nc(-c4cccs4)sc3n2)c1 -5.06%
CCC(C)NC(=O)Cn1c(=O)n(-c2ccc(Cl)c(Cl)c2)c(=O)c2c(C)c(C(=O)N(CC)CC)sc21 (stereo not drawn) -17.7%
Cc1ccc(-n2ncc(C(=O)N3CCN(c4ccccn4)CC3)c2C2CCN(C(=O)OC(C)(C)C)CC2)cc1 -8.92%
CCc1nn(Cc2cccc(F)c2)c(=O)c2cc3cc(C)ccc3n12 25.9%
Cc1ccc(NC(=O)c2cc(S(=O)(=O)N3CCCc4ccccc43)ccc2F)cc1F -13.9%
COc1ccc(Nc2c(-c3ccc(C)o3)nc3ccc(Cl)cn23)cc1 -18.7%
COC(=O)c1ccccc1NC(=O)Cn1c(=O)nc(-c2ccccc2)c2cc(Cl)ccc21 -12.3%
Cc1cccc(C)c1Nc1c(-c2cccs2)nc2ncccn12 48.1%
CCCCCCCCCCC[C@@H](C[C@@H]1OC(=O)[C@H]1CCCCCC)OC(=O)[C@H](CC(C)C)NC=O 6.37%
CCCCC(=O)Nc1cc2nn(-c3ccc(OCC)cc3)nc2cc1C 26.9%
Cc1cccc(Cn2cc(S(=O)(=O)c3ccc(Cl)cc3)c(=O)c3cc4c(cc32)OCO4)c1 -9.24%
Cc1ccc(OCC(=O)Nc2cc(-c3nc4ccccc4[nH]3)ccc2C)c(C)c1 -5.98%
CS(=O)(=O)N1CCC(n2c(C(F)(F)F)nc3cccnc32)CC1 5.81%
Cc1cccc(OCCSc2nc3ccc(NC(=O)c4cccs4)cc3s2)c1 16.2%
Cn1c(=O)c2c(SCC(=O)NCC3CCCO3)nc(-c3cccc(F)c3)nc2n(C)c1=O (stereo not drawn) -5.92%
CCn1c(=O)sc2cc(NC(=O)c3cccc(OC)c3)ccc21 35.4%
CC(C)c1nn2c(=O)cc(COC(=O)CNC(=O)c3ccccc3Cl)nc2s1 1.75%
O=C(Cn1ccn(-c2ccc(F)c(F)c2)c(=O)c1=O)c1ccc(F)cc1 -5.72%
CCN1CCN(c2nnc(-n3cccc3C(=O)Nc3cccc(OC)c3)s2)CC1 -3.54%
CCOc1ccc(Cn2c(CNS(=O)(=O)c3c(C)cc(C)cc3C)nc3cccnc32)cc1 -20.1%
CCC(C)n1c(SCc2ccc(C(C)(C)C)cc2)nc2ccsc2c1=O (stereo not drawn) -12.5%
Cc1nnc(NC(=O)CSc2nccn2-c2ccc(Cl)cc2)s1 -14.9%
Oc1cn2c(n1)Nc1ccc(Cl)c(Cl)c1C2 -10.5%
O=S(=O)(c1ccccc1)c1nc(-c2cccs2)oc1SCc1ccccc1Cl -22%
Cc1ccc(OCc2nc(-c3ccc(C(=O)N4CCN(c5cc(Cl)ccc5C)CC4)cc3)oc2C)cc1 3.58%
COC(=O)c1ccc(C(=O)OC)c(NC(=O)N2CC3CCCN3c3ccccc32)c1 (stereo not drawn) -22.2%
CCOC(=O)CC(=O)CSc1nc2ccccc2c(=O)n1-c1ccc(C(=O)NCCOC)cc1 -27.3%
Cc1ccc(Cl)cc1N1CCN(C(=O)c2cc3c(=O)n(C)c4ccccc4c3s2)CC1 5.73%
O=C(CC1NCCNC1=O)Nc1ccccc1F (stereo not drawn) 0.823%
CCOC(=O)c1c(-c2ccc(C)cc2)csc1NC(=O)c1cc(=O)c2cc(Cl)ccc2o1 -3.4%
CCOc1ccccc1NC(=O)CSc1nc2c([nH]c3ccccc32)c(=O)n1-c1ccccc1 -39.5%
Cc1ccc(NC(=O)NCCOCCn2c(=O)oc3ccccc32)cc1F 17.7%
O=C1O[C@H](CO)[C@@H](O)[C@H](O)[C@H]1O 2.21%
O=C(OCC1CCCO1)c1ccc2c(c1)N(Cc1cccc(Cl)c1)C(=O)c1ccccc1S2(=O)=O (stereo not drawn) -27.1%
Cc1cccc(NC(=O)c2c(NC(=O)c3ccccc3)sc3c2CCCC3)c1 -3.09%
Cn1c(=O)c2c(ncn2CC(=O)O)n(C)c1=O 4.46%
Cc1cc(C)c2c(n1)nn1c(C)c(CCC(=O)NCc3ccccc3Cl)c(C)nc21 -15.1%
CN1CCSc2ccc(C(=O)NCc3ccccc3F)cc21 -9.98%
CCOc1ccc(-c2cc3nc(C4CCN(C(=O)OC(C)(C)C)CC4)c(C(=O)Nc4ccc(C)cc4Cl)cn3n2)cc1 -13.9%
O=S(=O)(c1ccc(Br)cc1)c1nnn2c1nc(Nc1cccc(C(F)(F)F)c1)c1sccc12 -4.94%
COC(=O)c1c(C)sc(-c2c(-c3ccc4c(c3)OCCO4)[nH]c3[nH]c(=O)[nH]c(=O)c23)c1O -32.6%
COc1ccc(Cl)cc1NC(=O)CSc1c2c(nc3ccccc13)CCC2 -28.4%
O=C(Nc1nnc(N2CCCCCC2)s1)Nc1ccccc1C(F)(F)F -18.2%
CCC(Sc1nc2ccccc2c2nc(CCc3c(C)n[nH]c3C)nn12)C(=O)Nc1ccc(OC)cc1 (stereo not drawn) -13.7%
COc1cc(C(=O)Nc2nc3c(s2)Cc2c(Br)ccc(OC)c2-3)cc(OC)c1OC -8.64%
CCN(c1ccccc1)S(=O)(=O)c1ccc(NC(=O)c2cc(=O)c3cc(C)ccc3o2)cc1 -0.152%
O=C(c1ccc2c(c1)N(Cc1ccc(F)cc1)C(=O)c1ccccc1S2=O)N1CCOCC1 (stereo not drawn) -15%
Cc1nn(-c2ccccc2)c(OC(=O)c2ccc(F)cc2)c1S(=O)(=O)c1ccccc1 -8.67%
Cc1ccc(NC(=O)c2c(C(=O)Nc3ccccc3)sc3nc(C)cc(=O)n23)c(C)c1 8.17%
CCOC(=O)CSc1nc(-c2ccccc2)cc(C(F)(F)F)c1C#N 24.6%
CCn1c(CN2CCCCC2)nc2cc(NC(=O)c3ccccc3[N+](=O)[O-])ccc21 -4.17%
CSc1ncc(C(=O)NCc2ccc(Cl)cc2)c(C(F)(F)F)n1 18.1%
COc1ccc(C2=C(C)C(N3CCC(C(=O)Nc4cc(C)ccc4C)CC3)=NS2(=O)=O)cc1 -5.77%
CCCn1cc(S(=O)(=O)c2ccc(C)cc2)c(=O)c2cc(OC)c(OC)cc21 -6.97%
COc1cccc(NC(=O)C(=O)NCCc2csc(-c3ccc(C)cc3)n2)c1 -25.2%
